Assay results published in patent publication US20250222123A1, “COMPOUND COMPRISING FC-BINDING UNIT, AND CONJUGATE PREPARED USING SAME” (ABTIS CO., LTD., priority 2022, published 2025).

B1: Antibody-A: antibody comprising a light chain of SEQ ID NO: 26 and a heavy chain of SEQ ID NO: 25 (antibody)
heavy: QVQLVESGGGVVQPGRSLRLSCAASGFSLTTYGVHWVRQAPGKGLEWVAVIWAGGSTNYNSALMSRFTISRDNSKNTLYLQMNSLRAEDTAVYYCARAAYYGNGLDYWGQGTMVTVSS[… human IgG1 constant region …]
light: DIVMTQSPLSLPVTPGEPASISCKSSQTLLNSGNQKNYLTWYLQKPGQSPQLLIYWASTGESGVPDRFSGSGSGTDFTLKISRVEAEDVGVYYCQNAYFYPFTFGGGTKVEIKRTVAAPSVFIFPPSDEQLKSGTASVVCLLNNFYPREAKVQWKVDNALQSGNSQESVTEQDSKDSTYSLSSTLTLSKADYEKHKVYACEVTHQGLSSPVTKSFNRGEC
modifications: anti-CLDN 18.2 antibody Heavy chain; anti-CLDN 18.2 antibody Light chain
B2: ADC-A (conjugate)
heavy: B1 heavy
light: B1 light

Key:
[1] = target: T1, claudin 18.1 protein (CLDN18.1) (Homo sapiens, UniProt P56856); assay: Cell-based ELISA, Claudin 18.1 CHO-K1; assay type: binding
T1 construct: expressed in transfected cells; host or cells: CHO-K1, transient, pcDNA3.1 vector
Excerpt: A CHO-K1 cell line into which a gene (SEQ ID NO: 29) encoding the claudin 18.1 protein (CLDN18.1) was transiently transfected (hereinafter, referred to as “Claudin 18.1 CHO-K1”), a CHO-K1 cell line into which a gene (SEQ ID NO: 30) encoding the claudin 18.2 protein (CLDN18.2) was transiently transfected (hereinafter, referred to as “Claudin 18.2 CHO-K1”), and a CHO-K1 cell line into which only a MOCK vector (empty vector) was transiently transfected (hereinafter, referred to as “MOCK CHO-K1”) were prepared. At this time, a pcDNA3.1 vector was used in the case of Claudin 18.1 CHO-K1, and a pcDNA3.1 (+) vector was used in the case of Claudin 18.2 CHO-K1. […]
Transient transfection was performed according to the TransIT2020 manual, the transfected cells were plated on a 96-well plate for culture, and then treated with antibody-A and ADC-A, respectively, and then cell-based enzyme-linked immunosorbent assay (ELISA) was performed, and optical density (OD) values were measured. At this time, the measured values are illustrated in FIGS. 34 to 36.
The measured results were used for regression analysis in GraphPad PRISM® 9.0 software to calculate EC50 and Bmax. The cell binding strength of antibody-A and ADC-A was evaluated based on the calculated values.

[2] = target: T2, CLDN18.2 virus-like particle (VLP) (Homo sapiens, UniProt P56856); assay: Indirect ELISA on CLDN18.2 virus-like particle (VLP); assay type: binding; conditions: CLDN18.2 (antigen protein), VLP-coated plate
T2 construct: purchased CUSABIO TECHNOLOGY LLC CSB-MP005498HU (A5)
Description: To confirm the binding strength to an antigen, a CLDN18.2 virus-like particle (VLP) in which the claudin 18.2 protein (CLDN18.2) was expressed was prepared. At this time, CLDN18.2˜VLP is CSB-MP005498HU (A5) from CUSABIO TECHNOLOGY LLC.
After a 96-well plate was coated with the CLDN18.2 VLP for ELISA and treated with antibody-A and ADC-A, respectively, indirect ELISA was performed to measure OD values. At this time, the measured values are illustrated in FIG. 37.
The measured results were used for regression analysis in GraphPad PRISM® 9.0 software to calculate EC50 and Bmax. The antigen binding strengths of antibody-A, ADC-A, antibody-B, and ADC-B were evaluated based on the calculated values.

MIA PaCa-2 (CLDN18.2-) = assay: Cell-based ELISA, CLDN18.2-negative cancer cells; assay type: binding; conditions: parental MIA PaCa-2, CLDN 18.2-negative cell line
Description: Four types of cell lines (MIA PaCa-2˜CLDN18.2, PATU8988S, parental MIA PaCa-2 (CLDN18.2-), and SNU601) were prepared. At this time, MIA PaCa-2˜CLDN18.2 and PATU8988S are CLDN18.2-positive pancreatic cancer cell lines. MIA PaCa-2 (CLDN18.2-) is a CLDN18.2-negative pancreatic cancer cell line. SNU601 is a CLDN18.2-positive gastric cancer cell line.
The prepared cell lines were cultured in DMEM containing 10% FBS and 1% penicillin/streptomycin (MIA PaCa-2˜CLDN18.2, MIA PaCa-2 (CLDN18.2-)), RPMI1640 containing 10% FBS and 1% penicillin/streptomycin (SNU601), and DMEM comprising 5% FBS, 5% horse serum, 1% penicillin/streptomycin, and […] L-glutamine (PATU8988S) in an incubator under the conditions of 37° C. and 5% CO2.
The prepared cell lines were plated on 96-well culture plates, treated with antibody-A, ADC-A, antibody-B, and ADC-B, respectively, and then cell-based ELISA was performed, and OD values were measured. At this time, the measured values are illustrated in FIGS. 38 to 41.
The measured results were used for regression analysis in GraphPad PRISM® 9.0 software to calculate EC50 and Bmax. The cell binding strengths of antibody-A, ADC-A, antibody-B, and ADC-B to each cell line were evaluated based on the calculated values.

[3] = Body weight and histological observation in the SNU601 tumor model mice; assay type: in vivo, BALB/c nude mouse; conditions: for effects on the changes in body weight (in words): during the study period (28 days); for histological gastric lesions (in words): even in the highest concentration administration group, G8 (2 mg/kg)
Excerpt: For Tumor Development, an SNU601 Cell Line (1×10^7) was Mixed with Serum-Free medium and Matrigel and the resulting mixture was inoculated subcutaneously into the left flank of each BALB/c nude mouse (purchased from Charles River Laboratories Japan Inc.). Each mouse was randomly assigned to eight groups (G1 to G8) on the basis that the average tumor volume in each group reached about 155 mm^3.
All animals were observed twice a day for mortality, abnormal symptoms, pain and signs of stress, and once a day for clinical signs. The change in body weight and the tumor volume were measured three times a week, and the tumor weight was determined after autopsy. The tumor volume, tumor difference, and tumor growth inhibition were calculated as follows: […]
At this time, the measured tumor volumes are illustrated in FIG. 55. The measured body weights are illustrated in FIG. 56. The shape of the tumors after autopsy was the same as that in FIG. 57. The tumor weights determined after autopsy is illustrated in FIG. 58.
Numerical data regarding the performance of the study was calculated as mean and standard deviation. Group variances were compared using the Bartlett's test at a 0.05 significance level for each parameter. When the difference between group variances was not significant, a parametric one-way analysis of variance (ANOVA) was performed. When a significant difference between means was indicated by ANOVA (p≤0.05), group mean comparisons between the control and each treatment group were performed using Dunnett's test. […] When significance was identified by the Kruskal-Wallis test (p<0.05), the significance of the difference between the control and each treatment group was assessed using the Dunn's multiple comparison test. Significance was reported at the 0.05, 0.01 and 0.001 levels for the comparison of each group. All statistical analyses were performed using GraphPad PRISM® Version 5.0.

[4] = 2 mg/kg, 1 time/Day1, Intravenous Injection (G2, G8)

Row | Molecule | binding to cell line (in words) [1] | Bmax [2] | binding to cell line (in words) (MIA PaCa-2 (CLDN18.2-)) | Weight (g) (Average ± Standard Deviation) Day 1 [3, 4] | Weight (g) (Average ± Standard Deviation) Day 28 [3, 4] | effects on the changes in body weight (in words) [3] | histological gastric lesions (in words) [3] | Weight (g) (Average ± Standard Deviation) Day 1 ([3]; 1 mg/kg, 2 times/Day1, Day7, Intravenous Injection (G5))
1 | B1 | do not bind | 3.229 | did not bind | 20.2 ± 1.3 g | 23.0 ± 1.5 g | no effects | not observed | 
2 | B2 | do not bind | 2.995 | did not bind |  |  | no effects | not observed | 20.0 ± 1.0 g
